# The sequences are guide strands of siRNAs; only the seed at positions 2 to 7 varies.
# Legend:
# GL261 = test: cell viability relative to siNT1 (ATP content); H4 human neuroglioma and GL261 mouse glioma; higher = less toxic; details: siRNA concentration 25 nM; 96 h; mouse
# Protocol: (§1)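 Arrayed screen of all 4096 6mer seeds. Each seed sits at guide-strand positions 2-7 of a neutral 19mer siRNA backbone (siNT1-based, passenger strand 2'-O-methyl modified at positions 1-2 to block RISC loading, 3' DNA overhangs). The guide strand is built here as U + seed + ACAUGUAAACCA. Cells were reverse transfected in triplicate in 384-well plates (H4 at 10 nM, GL261 at 25 nM) with Lipofectamine RNAiMAX. Viability was read as ATP content (CellTiter-Glo) 96 h after transfection and normalised to siNT1 (%).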
# H4 = test: as above; details: siRNA concentration 10 nM; 96 h; human
# Protocol: as §1
# 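Further: cells reverse transfected with siRNA duplexes via lipid reagent, ATP read by luminescence, triplicate wells, values scaled to mean viability with non-targeting control siNT1.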
sequence,measurement,setting,value
UCCAGGGACAUGUAAACCA,cell viability,GL261,15.8%
same,cell viability,H4,39.8%
UCCAGGUACAUGUAAACCA,cell viability,GL261,28.9%
same,cell viability,H4,32.2%
UCCAGUAACAUGUAAACCA,cell viability,GL261,36.3%
same,cell viability,H4,106%
UCCAGUCACAUGUAAACCA,cell viability,GL261,28.6%
same,cell viability,H4,40.4%
UCCAGUGACAUGUAAACCA,cell viability,GL261,34.6%
same,cell viability,H4,81.9%
UCCAGUUACAUGUAAACCA,cell viability,GL261,26.4%
same,cell viability,H4,71%
UCCAUAAACAUGUAAACCA,cell viability,GL261,34.4%
same,cell viability,H4,78.8%
UCCAUACACAUGUAAACCA,cell viability,GL261,23.5%
same,cell viability,H4,72.3%
UCCAUAGACAUGUAAACCA,cell viability,GL261,22%
same,cell viability,H4,108%
UCCAUAUACAUGUAAACCA,cell viability,GL261,34.6%
same,cell viability,H4,75.6%
UCCAUCAACAUGUAAACCA,cell viability,GL261,23.2%
same,cell viability,H4,110%
UCCAUCCACAUGUAAACCA,cell viability,GL261,9.21%
same,cell viability,H4,3.36%
UCCAUCGACAUGUAAACCA,cell viability,GL261,34.3%
same,cell viability,H4,83.9%
UCCAUCUACAUGUAAACCA,cell viability,GL261,19.4%
same,cell viability,H4,45.9%
UCCAUGAACAUGUAAACCA,cell viability,GL261,36.8%
same,cell viability,H4,109%
UCCAUGCACAUGUAAACCA,cell viability,GL261,10.1%
same,cell viability,H4,18.8%
UCCAUGGACAUGUAAACCA,cell viability,GL261,12.1%
same,cell viability,H4,15.4%
UCCAUGUACAUGUAAACCA,cell viability,GL261,20.3%
same,cell viability,H4,34.9%
UCCAUUAACAUGUAAACCA,cell viability,GL261,41.2%
same,cell viability,H4,94.1%
UCCAUUCACAUGUAAACCA,cell viability,GL261,21.4%
same,cell viability,H4,61.1%
UCCAUUGACAUGUAAACCA,cell viability,GL261,62.6%
same,cell viability,H4,108%
UCCAUUUACAUGUAAACCA,cell viability,GL261,39.3%
same,cell viability,H4,73.8%
UCCCAAAACAUGUAAACCA,cell viability,GL261,70%
same,cell viability,H4,79.1%
UCCCAACACAUGUAAACCA,cell viability,GL261,43.5%
same,cell viability,H4,77.4%
UCCCAAGACAUGUAAACCA,cell viability,GL261,56.7%
same,cell viability,H4,88%
UCCCAAUACAUGUAAACCA,cell viability,GL261,62.9%
same,cell viability,H4,109%
UCCCACAACAUGUAAACCA,cell viability,GL261,37.9%
same,cell viability,H4,80.9%
UCCCACCACAUGUAAACCA,cell viability,GL261,17.2%
same,cell viability,H4,34.2%
UCCCACGACAUGUAAACCA,cell viability,GL261,27.7%
same,cell viability,H4,70%
UCCCACUACAUGUAAACCA,cell viability,GL261,77.6%
same,cell viability,H4,96.9%
UCCCAGAACAUGUAAACCA,cell viability,GL261,40.5%
same,cell viability,H4,67.8%
UCCCAGCACAUGUAAACCA,cell viability,GL261,12.1%
same,cell viability,H4,5.22%
UCCCAGGACAUGUAAACCA,cell viability,GL261,45.9%
same,cell viability,H4,80.2%
UCCCAGUACAUGUAAACCA,cell viability,GL261,16.3%
same,cell viability,H4,82.9%
UCCCAUAACAUGUAAACCA,cell viability,GL261,40.4%
same,cell viability,H4,112%
UCCCAUCACAUGUAAACCA,cell viability,GL261,28.1%
same,cell viability,H4,86.1%
UCCCAUGACAUGUAAACCA,cell viability,GL261,33.3%
same,cell viability,H4,77.2%
UCCCAUUACAUGUAAACCA,cell viability,GL261,34.8%
same,cell viability,H4,89.7%
UCCCCAAACAUGUAAACCA,cell viability,GL261,65.3%
same,cell viability,H4,112%
UCCCCACACAUGUAAACCA,cell viability,GL261,46.1%
same,cell viability,H4,55.7%
UCCCCAGACAUGUAAACCA,cell viability,GL261,42.3%
same,cell viability,H4,69.6%
UCCCCAUACAUGUAAACCA,cell viability,GL261,55.6%
same,cell viability,H4,70.5%
UCCCCCAACAUGUAAACCA,cell viability,GL261,49.3%
same,cell viability,H4,48.1%
UCCCCCCACAUGUAAACCA,cell viability,GL261,34.2%
same,cell viability,H4,12.7%
UCCCCCGACAUGUAAACCA,cell viability,GL261,53.4%
same,cell viability,H4,73.8%
UCCCCCUACAUGUAAACCA,cell viability,GL261,40.2%
same,cell viability,H4,65.5%
UCCCCGAACAUGUAAACCA,cell viability,GL261,90.2%
same,cell viability,H4,103%
UCCCCGCACAUGUAAACCA,cell viability,GL261,24.1%
same,cell viability,H4,40.6%
UCCCCGGACAUGUAAACCA,cell viability,GL261,75.6%
same,cell viability,H4,59%
UCCCCGUACAUGUAAACCA,cell viability,GL261,89%
same,cell viability,H4,84.1%
UCCCCUAACAUGUAAACCA,cell viability,GL261,95.3%
same,cell viability,H4,108%
UCCCCUCACAUGUAAACCA,cell viability,GL261,37.1%
same,cell viability,H4,39.6%
UCCCCUGACAUGUAAACCA,cell viability,GL261,72.1%
same,cell viability,H4,113%
UCCCCUUACAUGUAAACCA,cell viability,GL261,80.9%
same,cell viability,H4,74.8%
UCCCGAAACAUGUAAACCA,cell viability,GL261,50.2%
same,cell viability,H4,75.1%
UCCCGACACAUGUAAACCA,cell viability,GL261,29.5%
same,cell viability,H4,58.5%
UCCCGAGACAUGUAAACCA,cell viability,GL261,79.8%
same,cell viability,H4,69.2%
UCCCGAUACAUGUAAACCA,cell viability,GL261,72.5%
same,cell viability,H4,68.6%
UCCCGCAACAUGUAAACCA,cell viability,GL261,46.1%
same,cell viability,H4,62.2%
UCCCGCCACAUGUAAACCA,cell viability,GL261,13.1%
same,cell viability,H4,15.7%
UCCCGCGACAUGUAAACCA,cell viability,GL261,56.3%
same,cell viability,H4,87.4%
UCCCGCUACAUGUAAACCA,cell viability,GL261,23%
same,cell viability,H4,54.8%
UCCCGGAACAUGUAAACCA,cell viability,GL261,69.6%
same,cell viability,H4,60.5%
UCCCGGCACAUGUAAACCA,cell viability,GL261,16.7%
same,cell viability,H4,31.9%
UCCCGGGACAUGUAAACCA,cell viability,GL261,68.9%
same,cell viability,H4,73%
UCCCGGUACAUGUAAACCA,cell viability,GL261,42%
same,cell viability,H4,49.5%
UCCCGUAACAUGUAAACCA,cell viability,GL261,65.5%
same,cell viability,H4,68%
UCCCGUCACAUGUAAACCA,cell viability,GL261,47.1%
same,cell viability,H4,46.3%
UCCCGUGACAUGUAAACCA,cell viability,GL261,69.7%
same,cell viability,H4,75.2%
UCCCGUUACAUGUAAACCA,cell viability,GL261,61%
same,cell viability,H4,98.3%
UCCCUAAACAUGUAAACCA,cell viability,GL261,36.4%
same,cell viability,H4,76.8%
UCCCUACACAUGUAAACCA,cell viability,GL261,50.1%
same,cell viability,H4,83.3%
UCCCUAGACAUGUAAACCA,cell viability,GL261,57.5%
same,cell viability,H4,91.3%
UCCCUAUACAUGUAAACCA,cell viability,GL261,35.1%
same,cell viability,H4,72.9%
UCCCUCAACAUGUAAACCA,cell viability,GL261,38.1%
same,cell viability,H4,81.9%
UCCCUCCACAUGUAAACCA,cell viability,GL261,24.1%
same,cell viability,H4,28.6%
UCCCUCGACAUGUAAACCA,cell viability,GL261,63.1%
same,cell viability,H4,77.6%
UCCCUCUACAUGUAAACCA,cell viability,GL261,25.8%
same,cell viability,H4,39.3%
UCCCUGAACAUGUAAACCA,cell viability,GL261,37.5%
same,cell viability,H4,90.3%
UCCCUGCACAUGUAAACCA,cell viability,GL261,13.4%
same,cell viability,H4,21.9%
UCCCUGGACAUGUAAACCA,cell viability,GL261,21.9%
same,cell viability,H4,56.4%
UCCCUGUACAUGUAAACCA,cell viability,GL261,23.7%
same,cell viability,H4,45.3%
UCCCUUAACAUGUAAACCA,cell viability,GL261,57.1%
same,cell viability,H4,76.2%
UCCCUUCACAUGUAAACCA,cell viability,GL261,25.1%
same,cell viability,H4,49%
UCCCUUGACAUGUAAACCA,cell viability,GL261,56.3%
same,cell viability,H4,60.8%
UCCCUUUACAUGUAAACCA,cell viability,GL261,61%
same,cell viability,H4,70.2%
UCCGAAAACAUGUAAACCA,cell viability,GL261,73.7%
same,cell viability,H4,91.5%
UCCGAACACAUGUAAACCA,cell viability,GL261,52.7%
same,cell viability,H4,72.5%
UCCGAAGACAUGUAAACCA,cell viability,GL261,62.5%
same,cell viability,H4,71.3%
UCCGAAUACAUGUAAACCA,cell viability,GL261,37.1%
same,cell viability,H4,90.1%
UCCGACAACAUGUAAACCA,cell viability,GL261,56.2%
same,cell viability,H4,73.9%
UCCGACCACAUGUAAACCA,cell viability,GL261,12.7%
same,cell viability,H4,58.1%
UCCGACGACAUGUAAACCA,cell viability,GL261,47.1%
same,cell viability,H4,84.5%
UCCGACUACAUGUAAACCA,cell viability,GL261,41.3%
same,cell viability,H4,51.5%
UCCGAGAACAUGUAAACCA,cell viability,GL261,55.6%
same,cell viability,H4,93.3%
UCCGAGCACAUGUAAACCA,cell viability,GL261,19.1%
same,cell viability,H4,49.8%
UCCGAGGACAUGUAAACCA,cell viability,GL261,38.7%
same,cell viability,H4,66%
UCCGAGUACAUGUAAACCA,cell viability,GL261,32.3%
same,cell viability,H4,59.4%
UCCGAUAACAUGUAAACCA,cell viability,GL261,47.1%
same,cell viability,H4,91.5%
UCCGAUCACAUGUAAACCA,cell viability,GL261,38.8%
same,cell viability,H4,58.2%
UCCGAUGACAUGUAAACCA,cell viability,GL261,42.7%
same,cell viability,H4,83.6%
UCCGAUUACAUGUAAACCA,cell viability,GL261,43.5%
same,cell viability,H4,87.1%
UCCGCAAACAUGUAAACCA,cell viability,GL261,46.7%
same,cell viability,H4,86.7%
UCCGCACACAUGUAAACCA,cell viability,GL261,22.2%
same,cell viability,H4,67.3%
UCCGCAGACAUGUAAACCA,cell viability,GL261,42.4%
same,cell viability,H4,86.9%
UCCGCAUACAUGUAAACCA,cell viability,GL261,45.5%
same,cell viability,H4,64.3%
UCCGCCAACAUGUAAACCA,cell viability,GL261,40.4%
same,cell viability,H4,65.9%
UCCGCCCACAUGUAAACCA,cell viability,GL261,16%
same,cell viability,H4,61.6%
UCCGCCGACAUGUAAACCA,cell viability,GL261,48.5%
same,cell viability,H4,85.5%
UCCGCCUACAUGUAAACCA,cell viability,GL261,19.1%
same,cell viability,H4,83%
UCCGCGAACAUGUAAACCA,cell viability,GL261,81.6%
same,cell viability,H4,83.3%
UCCGCGCACAUGUAAACCA,cell viability,GL261,25.9%
same,cell viability,H4,59.9%
UCCGCGGACAUGUAAACCA,cell viability,GL261,32.9%
same,cell viability,H4,56.2%

# Reference: the supplement of paper PMC8948288
